# About 1,400 (0.36%) of roughly 390,000 compounds were called active. This list was built around the results that the source calls inconclusive (neither active nor inactive); the mix of calls is not that of the screen. Calls come from the whole dose curve; as a rule, active = well fitted inhibition curve with a large enough effect; inconclusive = small, poorly fitted or top-dose-only effect; inactive = no such curve, though single readings can be large or run the other way. A potency beside an inconclusive call is a rough fit, not a confirmed value.
# Biological target: Flap endonuclease 1 (Homo sapiens) (UniProt P39748)
# Chain of UniProt P39748 (P39748 whole entry, looked up): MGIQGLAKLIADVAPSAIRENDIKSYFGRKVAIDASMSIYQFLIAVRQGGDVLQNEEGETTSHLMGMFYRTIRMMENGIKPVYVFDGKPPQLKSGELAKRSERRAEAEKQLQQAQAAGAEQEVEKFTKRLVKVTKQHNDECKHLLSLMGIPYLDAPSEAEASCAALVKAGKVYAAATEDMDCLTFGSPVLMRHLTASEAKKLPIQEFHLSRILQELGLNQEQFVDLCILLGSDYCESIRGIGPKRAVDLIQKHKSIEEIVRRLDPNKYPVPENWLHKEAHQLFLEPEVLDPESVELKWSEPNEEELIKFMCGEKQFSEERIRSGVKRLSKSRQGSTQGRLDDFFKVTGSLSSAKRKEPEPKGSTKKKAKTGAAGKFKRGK
# Test: qHTS Assay for the Inhibitors of Human Flap endonuclease 1 (FEN1). Note: nearly all actives have a fitted effect of over 65% in size.
# Conditions: Recombinant FEN1 flap cleavage, fluorescence, 15 min; series mostly up to 114 µM
# In short: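 Steps: FEN1 (10 nM) dispensed; compound added by pin tool; 15 min at room temperature; substrate added to 50 nM final; reads at 0 min and 15 min; data normalized and fitted (four-parameter Hill).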
# Potency is the fitted concentration of half-maximal effect; tags give direction and shape of the fitted curve.
row,SMILES,Potency
1,CC(C)c1ccc(OCC(=O)N(Cc2ccccc2)c2ccccn2)cc1,"inconclusive: 39.8 µM [inhibitor, single point]"
2,Oc1ccc(-n2nnnc2SCc2c(F)cccc2Cl)cc1,"inconclusive: 89.1 µM [inhibitor, partial curve, poor fit]"
3,COc1ccc(NC(=O)Nc2cc(-c3cn4cccnc4n3)ccc2OC)cc1,"inconclusive: 56.2 µM [inhibitor, partial curve, poor fit]"
4,CCN1CCCC1CNc1ncnc2c1[nH]c1ccc(Cl)cc12 (stereo not given),"inconclusive: 50.1 µM [inhibitor, partial curve, poor fit]"
5,COCCn1c(C)cc(C(=O)CSc2nc3nc(C)cc(C)n3n2)c1C,inactive
6,COc1ccc(OC)c([N+](=O)[O-])c1C(N)=O,"inconclusive: 89.1 µM [inhibitor, partial curve, poor fit]"
7,Cc1nc(-c2ccc(S(=O)(=O)NCc3ccc(OC(C)C)cc3)cc2)co1,inactive
8,O=S(=O)(NCC(c1ccccc1)N1CCc2ccccc21)c1ccccc1 (stereo not given),"inconclusive: 89.1 µM [inhibitor, partial curve, poor fit]"
9,CN(C)c1ccc(/C=C(\C#N)C(=O)c2ccccc2)cc1,"inconclusive: 17.8 µM [inhibitor, partial curve]"
10,CCOC(=O)c1cc(CC)sc1NC(=O)c1cccc(N2C(=O)CCC2=O)c1,inactive
11,O=C(NCc1ccco1)c1nn2c(C(F)(F)F)cc(-c3cccs3)nc2c1Br,inactive
12,Cc1ccc(N2CC(C(=O)OCC(=O)c3ccc[nH]3)CC2=O)cc1 (stereo not given),inactive
13,O=C(COc1cccc(Cl)c1)Nc1ccc2c(c1)CCC2,"inconclusive: 89.1 µM [inhibitor, partial curve, poor fit]"
14,CCOc1cc(/C=C2\CCCC(C(=O)C(F)(F)F)=C2O)ccc1O,"inconclusive: 89.1 µM [inhibitor, single point]"
15,Cc1cc2nnc(SCC(=O)Nc3ccc(F)c(Cl)c3)n2c2ccccc12,inactive
16,O=C(/C=C/c1ccc(O)cc1)c1ccc(O)cc1O,"inconclusive: 8.44 µM [inhibitor, partial curve, poor fit]"
17,CC(C)(C)C1CCC(=NNc2nc3ccccc3[nH]2)CC1 (stereo not given),inactive
18,CCN1CCN(CCCNC(=O)c2cc3c(=O)n(C)c4ccccc4c3s2)CC1,"inconclusive: 39.8 µM [inhibitor, partial curve]"
19,O=C(Nc1cc(Br)ccc1O)C1CC(c2c(F)cccc2Cl)=NO1 (stereo not given),"inconclusive: 89.1 µM [inhibitor, partial curve, poor fit]"
20,CCCC(=O)Nc1ccc(N2CCCCC2)cc1,inactive
21,CC(C)(Oc1ccc(Cl)cc1)C(=O)NC1=NN(c2ccccc2)C(=O)C1,inactive
22,O=C(NC(C(=O)O)c1ccccc1)c1ccccc1 (stereo not given),inactive
23,O=S(=O)(c1ccc(F)cc1)N1CCC2(CC1)OCCN2S(=O)(=O)c1cccs1,inactive
24,O=C(CSCc1ccccc1Cl)N1CCN(c2ccc(F)cc2)CC1,inactive

row,SMILES,Potency
1,COc1ccc(N)c2c1C(=O)c1ccccc1C2=O,"inconclusive: 50.1 µM [inhibitor, partial curve]"
2,CCOC(=O)C1=C(CSc2nc(-c3ccncc3)ccc2C#N)OC(N)=C(C#N)C1c1ccc(OC)cc1 (stereo not given),"inconclusive: 50.1 µM [inhibitor, partial curve, poor fit]"
3,CCOC(=O)c1c(C)n(C)c2ccc(O)c(CN(C)C)c12,"inconclusive: 89.1 µM [inhibitor, partial curve, poor fit]"
4,CN(C(=O)c1ccc(OC2CCN(CCc3ccccc3)CC2)cc1)C1CCOC1 (stereo not given),"inconclusive: 39.8 µM [inhibitor, single point]"
5,C/C(=N\Nc1ccc(C(=O)O)cc1)c1ccc2c(c1)Nc1ccccc1S2,"inconclusive: 79.4 µM [inhibitor, partial curve]"
6,NC(=O)c1ccc(N=C2C(=O)Nc3ccc([N+](=O)[O-])cc32)cc1,"inconclusive: 14.1 µM [inhibitor, partial curve, poor fit]"
7,Cc1cccc(NC(=O)c2ccc(N(Cc3ccccc3)S(C)(=O)=O)cc2)c1,inactive
8,COc1ccc(NS(=O)(=O)c2cccc(C(=O)N/N=C(/C)c3ccc(-n4ccnc4)cc3)c2)cc1,inactive
9,O=C1CCCC(O)=C1N=Nc1cccc(C(=O)O)c1,"inconclusive: 56.2 µM [inhibitor, partial curve, poor fit]"
10,Cc1ccc(S(=O)(=O)NCCC(=O)N2CCN(c3ccccc3)CC2)cc1C,inactive
11,CCCCOc1ccc(C(=O)NCCOc2cccc(OC)c2)cc1,"inconclusive: 70.8 µM [inhibitor, partial curve]"
12,Nc1nonc1-n1nnc(C(=O)N/N=C/c2cccc(F)c2)c1CN1CCCC1,inactive
13,COC(=O)c1c(NC(=O)COC(=O)c2ccc(NC(=O)CC#N)cc2)sc2c1CCCCC2,"inconclusive: 89.1 µM [inhibitor, single point]"
14,O=C(Nc1ccc2nc(-c3cccnc3)[nH]c2c1)C1CCCCC1,inactive
15,COc1cc(S(=O)(=O)N2CCOCC2)c(OC)c(S(=O)(=O)N2CCOCC2)c1,inactive
16,COc1ccc(CNC(=O)c2c3c(nc4ccccc24)C(=O)N(C2CCCCC2)C3)c(OC)c1,"inconclusive: 79.4 µM [inhibitor, partial curve, poor fit]"
17,CNC(=S)N1CCc2sccc2C1C (stereo not given),inactive
18,CCN(CC)CCCNC(=O)c1cc2c(=O)[nH]c3ccc(C)cc3c2s1,"inconclusive: 50.1 µM [inhibitor, partial curve]"
19,Cc1cc(C)n2nc(C(=O)OCC(=O)c3cc(C)n(CC4CCCO4)c3C)nc2n1 (stereo not given),inactive
20,COc1ccccc1OCC(=O)NCC1CCCN(C(=O)c2ccccc2SC)C1 (stereo not given),"inconclusive: 56.2 µM [inhibitor, partial curve, poor fit]"
21,Fc1cccc(Cl)c1Cn1c(-c2cccs2)nc2ccccc21,"inconclusive: 79.4 µM [inhibitor, partial curve, poor fit]"
22,O=C(CCC1N=C2c3ccccc3N=C(SCc3cccc(F)c3)N2C1=O)NCc1cccs1 (stereo not given),"inconclusive: 100 µM [inhibitor, single point]"
23,C=CCn1c(SCC(=O)c2ccc(O)c(O)c2)nnc1-c1cccnc1,"inconclusive: 35.5 µM [inhibitor, full curve]"
24,O=c1oc(CCO)cc2ccc(C#Cc3ccsc3)cc12,"inconclusive: 89.1 µM [inhibitor, partial curve, poor fit]"

row,SMILES,Potency
1,O=C(CCCSc1ccccc1)Nc1nc(-c2ccco2)c(-c2ccco2)s1,"inconclusive: 56.2 µM [inhibitor, partial curve, poor fit]"
2,Fc1ccc(N2CCN(C3=Nc4cccc5cccc3c45)CC2)cc1,"inconclusive: 79.4 µM [inhibitor, single point]"
3,O=C(N/N=C/c1ccc(F)cc1)c1cc(-c2ccco2)nc2ccccc12,active: 79.4 µM
4,COc1cc2sc3cc(NCc4ccc(C)o4)ccc3c(=O)c2cc1OC,active: 31.6 µM
5,O=C(NN1C(=O)/C(=C/C=C/c2ccco2)SC1=S)c1ccccc1O,active: 11.2 µM
6,C[n+]1c(/C=C/c2ccc3c(c2)OCO3)ccc2ccccc21,inactive
7,C=CCCCCCCCCC(=O)Nc1ncccn1,"inconclusive: 89.1 µM [inhibitor, single point]"
8,COc1ccc2c(C)c(CCC(=O)NCc3ccc(Cl)cc3)c(=O)oc2c1C,"inconclusive: 89.1 µM [inhibitor, single point]"
9,CCCN(c1ccc(C(C)C)cc1)S(=O)(=O)c1ccc2c(c1)oc(=O)n2CC(=O)OCC,inactive
10,COc1cccc(Cn2c(CNS(=O)(=O)c3ccc(C(C)(C)C)cc3)nc3cccnc32)c1,inactive
11,CCOC(=O)c1ccc(N2C(=O)c3n[nH]c(C)c3C2c2ccc(OCC)cc2)cc1 (stereo not given),"inconclusive: 22.4 µM [inhibitor, partial curve, poor fit]"
12,O=C(CS(=O)(=O)c1cn(Cc2ccc(Cl)cc2)c2ccccc12)N1CCCC1,"inconclusive: 39.8 µM [inhibitor, partial curve, poor fit]"
13,CN(C)CCCN(C(=O)c1ccc(S(=O)(=O)N(C)C2CCCCC2)cc1)c1nc2ccc(F)cc2s1,"inconclusive: 79.4 µM [inhibitor, partial curve, poor fit]"
14,CCN(CC)CCNC(=O)c1cc2c(=O)n(C)c3ccccc3c2n1C,"inconclusive: 20 µM [inhibitor, full curve]"
15,COc1cccc2c1Oc1ncccc1N(c1ccc(C(=O)NCc3ccccc3Cl)s1)C2,inactive
16,COc1ccc(Nc2cc(C)nc3c(C)c(C)ccc23)cc1,"inconclusive: 50.1 µM [inhibitor, partial curve]"
17,O=C(COC(=O)c1cc(-c2ccc(Cl)s2)nc2ccccc12)NCc1ccco1,inactive
18,O=C(NCc1ccc(F)cc1)c1cnc(N2CCCCC2)c2ccccc12,inactive
19,Cc1ccc(NC(=O)CSc2nnc(-c3ccco3)c(-c3ccco3)n2)cc1,"inconclusive: 79.4 µM [inhibitor, single point]"
20,CC(C)(C)c1ccc(-c2nc(SCCCOc3ccccc3)n3[nH]c(=O)cc3n2)cc1,"inconclusive: 56.2 µM [inhibitor, partial curve, poor fit]"
21,Cn1nnc2c(N3CCN(c4ccccc4Cl)CC3)ncnc21,inactive
22,COC/C=C/C1=CC2=CC(=O)C(C)(OC(=O)c3cnc4ccccc4n3)C(=O)C2=CN1CC(C)C (stereo not given),"inconclusive: 14.1 µM [inhibitor, partial curve, poor fit]"

# — PubChem BioAssay AID588795 (National Center for Advancing Translational Sciences (NCATS), 2011)
